Test results reported in the supplement of paper PMC3334620.
Over roughly 33,000 sequences, “E-score (-0.5 to 0.5)” has its median near -0.035; the highest 2% begin near 0.34. This is one part of the list.

Biological target: T1, Mot3 (UniProt P54785)
T1 sequence: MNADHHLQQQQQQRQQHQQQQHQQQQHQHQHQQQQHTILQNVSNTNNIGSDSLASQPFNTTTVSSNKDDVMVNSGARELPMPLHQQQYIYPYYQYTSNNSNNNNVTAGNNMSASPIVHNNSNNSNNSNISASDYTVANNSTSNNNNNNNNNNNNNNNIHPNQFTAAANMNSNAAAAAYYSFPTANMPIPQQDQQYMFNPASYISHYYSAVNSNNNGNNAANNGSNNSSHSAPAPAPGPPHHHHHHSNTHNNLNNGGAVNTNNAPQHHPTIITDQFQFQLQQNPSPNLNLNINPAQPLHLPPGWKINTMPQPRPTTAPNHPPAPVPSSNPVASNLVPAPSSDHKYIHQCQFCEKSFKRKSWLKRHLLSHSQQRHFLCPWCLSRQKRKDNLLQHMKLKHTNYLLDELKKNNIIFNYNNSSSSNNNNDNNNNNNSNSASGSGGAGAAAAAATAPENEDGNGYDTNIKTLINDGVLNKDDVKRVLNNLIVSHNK
Experiment: PBM E-score (8-mer binding enrichment) (E-score (-0.5 to 0.5)); higher = stronger / more preferred TF binding; most listed sequences are background and not binding sites
Settings: protein concentration: 200 nM; construct: GST-full length
How it was run: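 Each ungapped eight-base word and its reverse complement, pooled, received an E-score from the Universal PBM Analysis Suite. Underlying scans, normalised with masliner, recorded fluorescent anti-GST bound to GST-tagged yeast transcription factors. These were applied at about 100-200 nM to universal all-10-mer Agilent arrays double-stranded by primer extension.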

Sequence | PBM E-score
GGAGCGCA | -0.281
CAAGTTAC | 0.17
CCTTTCAG | 0.00251
GCCACATA | -0.124
CGCTTACC | -0.0192
GTTTGAAA | 0.0991
ACAATGTG | 0.145
ACATGCGT | 0.341
CCTTAACG | 0.197
CACCACCA | -0.177
AAATGCGG | -0.0946
AGATCTTA | -0.0626
GCGCATTA | 0.118
CGTGATGC | -0.108
CGGGATGC | -0.128
CCGACGGC | -0.0929
CTTGCGCA | -0.127
GTTACTCA | 0.164
CCATTGGA | -0.123
GATGTGTA | 0.347
CGACGGAC | -0.19
AAAATGAA | 0.0677
CATTTCGC | -0.122
ATCAAGCG | -0.173
CTTTGCGC | 0.0652

Sequence | PBM E-score
GACAATCA | 0.0115
CTTAAACC | -0.0672
GGACCACC | -0.294
GGCCCACA | -0.194
CGAGTAAG | 0.00102
CACGTGGC | -0.0488
CCTGTTTA | 0.209
AGGCGGTC | -0.116
CCTCGCGA | -0.18
ACAAGTGG | -0.0425
CGATGAAC | -0.113
ACATGCAA | 0.261
ATCCGTAC | 0.0206
GGAACATA | 0.174
CTAACGGA | -0.115
CGATGTAG | 0.103
CTTTCTTC | 0.0228
AACAAATT | 0.192
AGGATACG | -0.00899
AGAAATAC | 0.179
GCGATGAA | -0.107
AGCTAGTA | 0.0384
CTTCAAAC | -0.0135
ATGGTAGA | -0.105
CTGAAACA | 0.197

Sequence | PBM E-score
AACACGGT | 0.353
GAGGAGGC | -0.0566
AGCTAGCT | -0.155
AGTATTTA | 0.0873
AAGCAAGC | -0.162
AGTGAGCG | -0.206
GTAAATAC | 0.228
GGAGTGCA | -0.198
TTGCGAAA | 0.168
AAGTTTCC | 0.177
AATGTGCA | 0.101
GAAAAGTA | 0.0562
AGCATGGG | -0.045
GAATGAGA | -0.141
AAAGAATC | 0.0124
GATCTGCC | -0.0298
ATACGATC | -0.0707
ACAGCAAT | 0.0493
GAGCAGCA | -0.129
CCGTTCCC | -0.126
GTAGTCAC | 0.275
CTAGAGGA | 0.0404
AGAGCTAG | -0.102
AGTGTAGC | 0.0209
GCCTGCAA | 0.326

Sequence | PBM E-score
AAGGGGTG | 0.0283
ACTTCGAT | -0.12
CGCTACTC | -0.251
AACTCATT | -0.201
CATGCATG | 0.0529
AGTGGCCA | -0.158
TAGTTTAA | 0.196
CGAGACTC | -0.242
GAGGTCGC | -0.277
GACCGGGC | -0.281
AGTACCGG | -0.0874
AGAATACC | -0.0543
CTAAGTAG | 0.132
TAACCCTA | 0.0752
GCGTAGCA | -0.112
ACCGCCGT | -0.266
ATCGGCGA | -0.331
AACGATTA | 0.139
ATACGTAT | 0.265
ATAGATTC | 0.108
ACCCTGCA | 0.0203
CAACATGG | 0.337
ATGGCACG | -0.0627
GCTCCCCA | -0.188
CTTGGGCA | 0.105

Sequence | PBM E-score
AAAAGTGT | 0.0608
GGGACGTA | 0.0574
GAGACTGA | -0.217
CTAACCTA | -0.0541
GAATCGAC | -0.166
CGCTTACA | 0.185
GCCCATAA | -0.0566
AATTACCA | 0.174
GCTCACCA | -0.172
TGTAGCAA | 0.157
GGGCAGGA | 0.00356
AAGCTTCC | -0.11
ATTATGTC | 0.13
CTGTAGCC | -0.0392
ACGATCCA | -0.0439
TAATAACA | 0.284
GCCATGTA | 0.383
AACTTTAT | 0.197
AGACAAAG | -0.0532
CAGTAATC | -0.0977
CGAATGAG | -0.134
ATTTTACG | 0.268
ATAGATCC | -0.206
AGACGAGA | -0.0859
CCTCTAAC | -0.0721

Sequence | PBM E-score
GGCTAAAA | -0.207
ACTGACAT | 0.0766
CCACGTAA | 0.271
GCAATGCC | 0.0774
GTCCCCCA | -0.112
CCTAAGAA | 0.191
ATATTCAA | 0.0249
GGACAAGA | -0.102
ACCGGATC | -0.048
CTTAGTCA | -0.182
AAGCTACG | -0.051
GTATTGGA | -0.037
GATTGAGA | 0.0267
AAGGTTGG | -0.097
CCACTCCG | -0.351
GATAGTCC | -0.0634
GCATCGCA | -0.36
AATTAGAT | 0.15
GCCGAAAC | -0.29
AACGATAC | 0.00245
AAGTATGG | -0.0425
ATTAGTAC | 0.116
ATGGGCGG | -0.112
AATAATTA | 0.172
GATAGACA | -0.0104

Sequence | PBM E-score
CCAGTCGG | -0.114
ATCCTGTG | 0.186
GGTAGGTA | 0.269
GCGTCCGA | -0.095
AGCGTTTC | 0.127
CCCAATAG | 0.111
CTAAGATC | -0.179
AGGGGGCC | -0.269
GCAGATCC | -0.0612
CCACATTC | -0.222
AGGTGACT | 0.156
CTTTCCGC | -0.109
TGACCTAA | 0.0576
CATTAGCA | 0.135
AGATTAGG | 0.042
GCCAACCA | -0.315
CGTGCGTA | 0.277
AGCCGGAA | -0.0394
AAACATTC | -0.0209
GGCGGATA | -0.0138
GCCCGGCC | -0.182
ATTCCAAC | 0.00023
